Data published in the supplement of paper PMC12217912.
The other results are listed elsewhere or left out. The full chains were built here from the parent and the listed change. Values near 0.05 are background.

B1: TEV protease; numbered along this chain (parent)
chain: MGESLFKGPRDYNPISSSICHLTNESDGHTTSLYGIGFGPFIITNKHLFRRNNGTLVVQSLHGVFKVKDTTTLQQHLVDGRDMIIIRMPKDFPPFPQKLKFREPQREERICLVTTNFQTKSMSSMVSDTSCTFPSGDGIFWKHWIQTKDGQCGSPLVSTRDGFIVGIHSASNFTNTNNYFTSVPKNFMELLTNQEAQQWVSGWRLNADSVLWGGHKVFMVKPEEPFQPVKEATQL

Variants of: B1
Experiment: raw area under fraction-flipped curve 0-4 h after induction (AUC4h, not background-subtracted), DNA-recorder readout of cleavage of the substrate (dimensionless); higher = more cleavage of the substrate by the protease variant
Settings: temperature: 34 °C; time window: 0-4 h after rhamnose induction
Method: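 In vivo DNA recorder in E. coli TOP10(DE3) ΔrhaA at 34 °C. Each TEVp single-site mutant (parent TEVp 0) is paired with a single-site variant of the 7-mer TEVs (canonical ENLYFQ|S). The substrate sits between flexible linkers in a Bxb1-sfGFP-TEVs-SsrA fusion, so cleavage stabilises Bxb1 and speeds flipping of a recombination array, read by NGS. The value is the raw area under the fraction-flipped curve over 0-4 h after rhamnose induction (AUC4h), with ≥20 reads per time point. It is not background-subtracted; inactive controls average about 0.047.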
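Further: Bxb1 expression induced with 0.2% (w/v) L-rhamnose at OD600 near 0.5, cultures sampled hourly, flipped fraction per protease–substrate barcode pair counted by paired-end Illumina sequencing.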

Variant | area with substrate ENLYFAS | area with substrate ENLYFCS | area with substrate ENLYFES | area with substrate ENLYFFS | area with substrate ENLYFHS | area with substrate ENLYFIS | area with substrate ENLYFKS | area with substrate ENLYFMS | area with substrate ENLYFNS | area with substrate ENLYFPS | area with substrate ENLYFTS | area with substrate ENLYFVS | area with substrate ENLYFYS | area with substrate ENLYFRS | area with substrate ENLYFSS | area with substrate ENLYFWS | area with substrate ENLYFDS | area with substrate ENLYFGS | area with substrate ENLYFLS
V157G | 0.0445 | 0.0457 | 0.0632 | 0.0586 | 0.0429 | 0.0468 | 0.0479 | 0.0783 | 0.0598 | 0.0692 | 0.0542 | 0.0624 | 0.0485 |  |  |  |  |  | 
H168P | 0.0628 |  |  | 0.0645 |  | 0.057 |  | 0.0438 | 0.0451 | 0.0545 |  |  |  | 0.0526 | 0.0489 | 0.0554 |  |  | 
H168R | 0.0843 | 0.0597 | 0.0608 | 0.0816 | 0.0629 | 0.0795 | 0.0606 | 0.0305 |  | 0.047 | 0.0596 | 0.0523 | 0.0515 | 0.0536 | 0.0633 | 0.0547 | 0.0554 | 0.058 | 
P155Q | 0.0418 | 0.0556 | 0.0394 | 0.0557 | 0.0511 | 0.0528 | 0.0568 | 0.0518 |  | 0.0493 | 0.0542 | 0.0529 | 0.0505 | 0.0502 | 0.0522 | 0.0602 | 0.056 | 0.043 | 
S201D | 0.0658 | 0.0569 | 0.0653 | 0.0599 | 0.0644 | 0.0646 | 0.0591 | 0.0769 | 0.0605 | 0.0617 | 0.0637 | 0.0721 |  | 0.0605 |  | 0.0639 |  |  | 0.044
T174L | 0.0621 |  |  |  |  | 0.0373 | 0.0375 |  |  | 0.072 |  |  |  |  |  |  |  | 0.0614 | 0.0644
T174R | 0.0422 | 0.0697 | 0.0638 | 0.0739 | 0.0464 | 0.0589 | 0.0588 | 0.0609 |  | 0.0619 | 0.0712 | 0.0454 | 0.0536 | 0.0516 |  | 0.0485 | 0.0659 |  | 0.0625
Q198F | 0.0541 | 0.062 | 0.0645 | 0.0717 | 0.0599 | 0.0572 | 0.0588 | 0.0695 | 0.0562 | 0.0616 | 0.0611 | 0.0704 | 0.0644 | 0.0644 | 0.0659 | 0.0637 | 0.0663 | 0.0602 | 0.0649
N186Y | 0.0636 |  | 0.0636 | 0.0698 |  | 0.0581 | 0.0884 |  |  | 0.0508 | 0.0691 |  |  |  |  |  |  |  | 
L191C | 0.0316 | 0.0705 |  | 0.0657 |  | 0.0597 | 0.0494 | 0.0573 | 0.0627 | 0.0642 | 0.0414 |  | 0.0526 | 0.05 | 0.0568 |  | 0.0595 |  | 0.0475
L156N | 0.0656 | 0.0498 | 0.0435 | 0.0607 | 0.0501 | 0.0403 | 0.0566 | 0.0507 | 0.0447 | 0.0514 |  | 0.0546 | 0.0528 | 0.0639 | 0.0476 | 0.0422 | 0.0599 | 0.0551 | 0.0593
E189K | 0.0455 |  |  |  |  | 0.0458 | 0.0562 |  |  |  | 0.0677 | 0.0791 |  |  | 0.0521 |  | 0.0266 |  | 
F187P | 0.0576 |  | 0.0536 | 0.0606 | 0.0465 | 0.0414 | 0.0477 | 0.0469 | 0.0366 | 0.0525 | 0.051 | 0.051 | 0.0281 |  |  | 0.065 | 0.0614 | 0.0384 | 0.0451
A207M | 0.0775 |  | 0.0756 | 0.0732 |  |  |  | 0.0648 | 0.0562 | 0.0618 |  |  |  | 0.0701 |  |  | 0.0552 |  | 
A207C | 0.0671 | 0.0247 | 0.073 |  | 0.0513 | 0.0711 | 0.075 | 0.0756 | 0.0676 | 0.0659 | 0.0576 | 0.0716 |  | 0.0379 | 0.0346 |  | 0.0623 | 0.0586 | 
A207S | 0.0706 | 0.0544 | 0.062 | 0.0858 | 0.0703 | 0.0505 | 0.0636 | 0.0692 | 0.0597 | 0.0628 |  | 0.0565 | 0.0585 |  | 0.0539 | 0.0478 | 0.0399 |  | 
T176P | 0.0593 | 0.0564 | 0.0409 |  | 0.0669 | 0.0613 | 0.0661 | 0.063 | 0.0626 | 0.0639 | 0.0469 | 0.0458 | 0.0522 | 0.0568 | 0.055 |  | 0.0578 | 0.0874 | 
T176E | 0.0635 |  | 0.0594 | 0.0703 |  | 0.0571 |  | 0.0564 |  | 0.0638 | 0.0628 | 0.0567 | 0.0585 | 0.0667 |  | 0.062 |  | 0.0596 | 0.0706
Y179M | 0.0709 | 0.0781 |  | 0.0608 |  | 0.0575 |  | 0.0575 | 0.0645 | 0.0743 | 0.0548 |  |  |  | 0.0543 | 0.0557 | 0.0616 | 0.0575 | 
P184A | 0.0528 | 0.0543 | 0.0526 | 0.065 | 0.0591 | 0.0556 | 0.0557 | 0.0601 |  | 0.0322 | 0.0541 |  | 0.0458 | 0.0532 |  | 0.0527 | 0.052 |  | 0.0537
P184R | 0.075 |  | 0.0621 |  |  | 0.0318 |  |  | 0.0568 |  | 0.0458 |  |  |  | 0.0469 |  | 0.0557 |  | 
P184Y | 0.0452 | 0.0492 | 0.0591 |  |  | 0.0237 | 0.0348 |  | 0.0554 | 0.0582 | 0.0585 | 0.0058 |  |  | 0.0665 | 0.0611 |  | 0.0576 | 
D161Q | 0.0278 | 0.054 | 0.0557 | 0.0626 | 0.0485 | 0.0429 |  | 0.0403 |  | 0.0515 | 0.0461 |  |  | 0.0567 | 0.0396 |  | 0.0505 | 0.0636 | 0.052
G202C | 0.0761 | 0.0799 | 0.0673 |  |  |  |  | 0.0623 | 0.0543 | 0.0578 |  | 0.0556 | 0.0603 |  |  | 0.0709 |  |  | 0.0474
G202F | 0.0541 | 0.0564 | 0.0541 | 0.0699 | 0.0708 | 0.0458 | 0.0586 | 0.0578 | 0.0576 | 0.068 |  |  |  | 0.0686 |  | 0.0516 | 0.056 | 0.0559 | 0.0502
V183K | 0.0442 |  | 0.0482 | 0.0564 |  | 0.0553 |  | 0.0561 | 0.0762 | 0.0511 | 0.0653 | 0.0423 | 0.0682 | 0.0556 | 0.0523 | 0.0517 |  | 0.0545 | 0.0605
I167E | 0.0521 | 0.0471 |  | 0.0605 |  | 0.102 | 0.0464 | 0.0564 |  | 0.0274 | 0.05 |  |  |  | 0.044 | 0.0618 |  |  | 
